# According to ChEMBL document CHEMBL4888484, “Replenishing the malaria drug discovery pipeline: Screening and hit evaluation of the MMV Hit Generation Library 1 (HGL1) against asexual blood stage Plasmodium falciparum ,using a nano luciferase reporter read-out” (2022):
# Hit rate of the full screen: of about 150,000 compounds, about 540 (0.36%) showed an effect of 50% or more. The list shows a part of the results.
# System: Plasmodium falciparum
# Experiment: Primary screen in NF54 nanoGlo assay, in single point, at 2uM, 72h; a lower Z score goes with more inhibition
# Type: functional, Erythrocyte
# Settings: timepoint 72 hour
SMILES,% Inhibition,Z score
CC(=O)N1CC(NC(=O)[C@@H](C)Cc2ccc(Cl)cc2)C1,-5%,0.76
CCN(CC)c1onc(-c2ccccc2)c1CN(CCCOC)C(=O)c1ccc(OC)cc1,-25%,2.38
COCCN(CC(=O)N(Cc1ccc(F)cc1)Cc1ccc(C)s1)C(=O)CC(C)(C)C,-12%,1.5
O=C(NCc1nc2ccccc2s1)[C@H]1CCC(=O)N(Cc2ccccn2)C1,-3%,0.38
O=C(N[C@@H]1CN(Cc2ccc3cc[nH]c3c2)C[C@H]1CO)c1cccnc1,-10%,1.76
CC(OC(=O)CC1CCCO1)c1c(F)cccc1N1CCOCC1 (centres undefined),-10%,1.29
Cc1cnc(CN[C@@H](C)c2cc(C)oc2C)o1,5%,-0.67
CCCCC1CCC(c2nc(-c3ccncc3)no2)CC1 (centres undefined),-6%,0.93
O=C(c1cccc(Br)c1)N1CCN(c2cc(N3CCCC3)ncn2)CC1,1%,-0.17
Cc1nc(O)nc(O)c1S(=O)(=O)N1CCC(C(=O)NC2CCCCCC2)CC1,3%,-0.34
COc1ccc(Oc2ccc(CNC(=O)c3cc4cc(OC)ccc4nc3C)cn2)cc1,1%,-0.2
O=C(N[C@H]1CCN(c2ccc(Br)cc2)C1)C1(O)CCCC1,-16%,1.49
Cc1ccc(OCC(=O)N2CCCC[C@H]2C(=O)N2CCOCC2)cc1,8%,-1.05
N#CC1C(c2cccc(Br)c2)C(C(N)=O)C(=O)NC1(O)c1ccccc1 (centres undefined),-5%,0.91
Cc1ccsc1CN1CCc2nc(N3CCOCC3)ncc2C1,3%,-0.49
Cc1scc(C(=O)Nc2cccc(S(=O)(=O)N3CCOCC3)c2)c1C,-18%,1.69
Cc1ccccc1NC1(CNc2ccc(C#N)nn2)CCCC1,15%,-1.72
O=C(CCn1cnc2cc(-c3noc(CCC4CCCC4)n3)ccc21)N1CCCC1,-6%,0.73
O=S(=O)(Nc1nc2ccccc2nc1Nc1cccc2ncccc12)c1ccc(Br)cc1,-12%,1.51
c1ccc([C@@H]2CN(c3ncnc4c3CCNC4)CCO2)cc1,-13%,1.72
CCCS(=O)(=O)CCNC(C)(C)c1nccs1,0%,0.02

SMILES,% Inhibition,Z score
CC1(Cc2nc(-c3cncc(Cl)c3)no2)CC1,1%,-0.11
Cc1cccc(OC(C)C(=O)Nc2ccc([C@H]3C[C@@H]3C(=O)O)cc2)c1 (some centres undefined),-3%,0.47
CC(C)[C@H]1CN(C)CCN1C(=O)CC1(c2ccccc2F)CC(=O)N(CCN(C)C)C1=O (some centres undefined),-8%,0.87
Cc1cnc(CN2CC(=O)NC[C@H]2c2ccccc2)cn1,-8%,0.91
CCn1nnc2ccc(-c3noc(-c4ccccn4)n3)cc21,-16%,2.68
O=C(Cn1cnnn1)N1CCn2c(cc3cc(Cl)ccc32)C1,2%,-0.43
CN(C)[C@@H](CNC(=O)c1c(F)cccc1F)c1ccc2c(c1)CCO2,-5%,0.81
Cc1n[nH]c(C)c1NC(=O)Nc1cccc2c1CCN2C,4%,-0.49
CCc1ccc(CNC(=O)C2CCN(c3cnc(N4CCOCC4)nc3)CC2)cc1,-4%,0.45
O=C(Nc1ccc2oc(-c3ccccc3Cl)nc2c1)c1nc[nH]n1,-10%,1.28
Cc1oc2ccccc2c1CNC(=O)N1CCC(Nc2nccs2)CC1,-2%,0.33
COc1ccc(O[C@@H]2O[C@@H]3COC(C)(C)O[C@H]3[C@H](O)[C@H]2NC(C)=O)cc1,-14%,1.8
O=C(NCCOc1ccccc1F)C1CC=CC1,5%,-0.64
CCc1nnc(CNC(=O)Cn2ccnc2)s1,-4%,0.77
COc1ccc([C@H]2OCC(C)(C)n3c(-c4ccc(Cl)cc4)c4c(=O)n(C)c(=O)n(C)c4c32)cc1,10%,-1.82
O=C(NC1CCCCCCC1)c1nnc(-c2ccccc2)o1,-3%,0.54
O=C(c1ccccn1)N1CCc2cc(S(=O)(=O)N3CCOCC3)ccc21,-11%,1.82
CO[C@@H]1C[C@@H](CO)N(C(=O)c2cnc(C)nc2C)C1,-5%,0.55
COc1cccc(N2CCN(C(=O)c3cn4cc(-c5cccc(F)c5)ccc4n3)CC2)c1,-4%,0.64
Cc1nn(-c2ccccn2)c2c1-c1nc(-c3ccncc3)ncc1CC2,1%,-0.13
O=C(c1n[nH]c2ccccc12)N1CCCn2nc(-c3ccncc3)cc2C1,-22%,4.07

SMILES,% Inhibition,Z score
Cc1ccccc1NC(=O)COc1cc(C)c2c(-c3ccccc3)nn(-c3ccccc3)c2n1,-14%,1.99
CC(=O)N1CC[C@@]2(O)CCN(C/C(=C\CC(C)C)c3ccccc3)C[C@H]2C1,-5%,0.88
CCN(CC)C(=O)c1ccc(COc2ccc3c(c2)[C@H](c2cccc(F)c2)N(C(=O)C(C)(C)C)CC3)o1,-10%,1.23
Cc1ccc(-c2nc(C(=O)N3CC(O)CC3c3ccccc3)cs2)n1C (centres undefined),0%,0.05
Cn1ncc2c(=O)n(CC(=O)NCC3(N4CCOCC4)CCCCC3)nnc21,-6%,0.79
COc1ccc(N2CCN(c3ccc(NC(=O)C4CCCCC4)cc3C#N)CC2)cc1,30%,-3.44
CCOCCN1CCN(C(=O)c2csnn2)CC1,-2%,0.27
Cc1nccn1[C@@H](C)C(=O)NC1(CO)CCCC1,14%,-1.92
c1ccn2cc(CCN[C@H]3CCc4cc5c(cc43)OCCO5)nc2c1,11%,-1.69
CCCN1C[C@@H](Nc2nc(N)c3cnn(C)c3n2)CC1=O,-15%,1.64
CCc1cc(NC(=O)N[C@@H](C)c2nc(C(F)(F)F)no2)n(C)n1,-7%,1
Cc1[nH]ccc1C(=O)N1CCC[C@H](Oc2ccccc2)C1,-16%,2.9
COc1cccc(CNc2nnc3n2CCCCC3)c1,-27%,3.22
CCN1C(=O)NC(C)(C2CCCN(Cc3ccc(C)cc3)C2)C1=O (centres undefined),-7%,1.12
Cc1ccsc1[C@H]1CCN(C(=O)c2ccc(C)c(F)c2F)C[C@@H]1O,4%,-0.47
COC(=O)C1=C(C(=O)OC)SC(=C2C(=S)C(C)(C)Nc3ccc(OC(=O)c4ccccc4)cc32)S1,-7%,0.83
CC(=O)N(CCC(C)C)Cc1c(-c2ccccc2F)noc1N1CCOCC1,-2%,0.25
Cc1c(NC(=O)Cc2ccc(Cl)cc2)c(=O)n(-c2ccccc2)n1C,-7%,0.99
COc1cc(OC)cc([C@H]2CC(=O)Nc3c2cnn3Cc2ccco2)c1,-15%,1.93
Cc1cc(C(=O)N[C@H]2CCC23CCOCC3)c(C)o1,7%,-0.9
O=C(N[C@H]1CCc2n[nH]c(=O)n2CC1)c1ccc2ccccc2n1,-9%,1.43

SMILES,% Inhibition,Z score
COc1ccc(-c2nc3ccccc3c(=O)n2Cc2ccccc2)c2ccccc12,1%,-0.21
CC1(C)CN(C(=O)Cc2[nH]ncc2C(=O)N2CC(C)(C)C2)C1,4%,-0.71
CC[C@@H](NC(=O)OC(C)(C)C)C(=O)NC1CCCC1Oc1ccccc1 (some centres undefined),10%,-1.28
C/C(=C\c1ccccc1)C(=O)N1CC[C@H](n2c(C)nc3ccccc32)C1,-15%,1.91
Cc1nnsc1C(=O)N1CCC[C@H](CCc2ccccc2)C1,-8%,1.17
CCOc1ccc(NC(=O)c2ccccc2N2C(=O)[C@@H]3Cc4c([nH]c5ccccc45)C(c4ccccc4C)N3C2=O)cc1 (some centres undefined),3%,-0.32
Cc1nn(C)c2nc(-c3ccccn3)nc(N3C[C@H](O)[C@@H](N4CCCC4)C3)c12,10%,-2.04
CN1CCOC(C(=O)N2CCOC3CCCCC32)C1 (centres undefined),-10%,1.57
CCO[C@H]1[C@H](NC(=O)CC)c2ccccc2C12CCN(Cc1cc3ccccc3o1)CC2,-16%,1.98
O=S(=O)(NC1CCC2OCCOC2C1)c1ccc(-c2ccc(Cl)c(Cl)c2)cc1 (centres undefined),-1%,0.27
CCOC1CC(CC(=O)Nc2ccc(O)cc2Br)C1 (centres undefined),0%,-0.04
CCn1cc(C(=O)NCCCN2CCC[C@H](C)C2)c(C(C)C)n1,5%,-0.44
Cc1cn(C)nc1C(=O)N1CC(C)(C)O[C@](C)(C(F)(F)F)C1,-14%,1.99
O=C1CCC(=O)N1OCc1ccc(F)cc1,-3%,0.6
Cc1nsc(NC(=O)COc2ccccc2Cl)n1,-9%,1.18
COC(=O)CC1(NCC(=O)NCC2CCC2)CCCCC1,-5%,0.64
Cc1noc(C)c1CN(C)C[C@H](O)c1ccc(Br)cc1,-5%,0.75
Cc1cc(C)nc(O[C@H]2CCN(S(=O)(=O)c3ccc(F)c(Cl)c3)C2)n1,-15%,2.35
Cc1ccc2c(c1)NC(=O)c1cc(S(=O)(=O)N(C)C)c(N3CCCC3)cc1O2,-15%,2.03
